# Measurements published in paper PMC5700166.
# Only a part is listed here, and it is no random draw. The list includes weakly bound sequences.
# Experiments:
# Assay in all cases: protein-binding microarray (PBM)
# Conditions in all cases: PBM: ~300 nM protein, 6 mM HEPES pH 7.8, 80 mM KCl, 0.5 mM EDTA, 0.5 mM EGTA, 6% glycerol, 35 ng/ul poly-dIdC, 1% milk, 1 h, room temperature; Ap Aiptasia and Nv Nematostella (sea anemones) / Co Capsaspora / Aq Amphimedon (sponge) / Dm Drosophila / Hu human; RHD is the Rel homology domain; high values mean tight binding; most listed sequences are background and not binding sites; double strand, one strand shown
# GST-Ap-NF-kB RHD = target: T1, GST-Ap-NF-kB RHD (UniProt A0A913YAJ5)
# T1 sequence: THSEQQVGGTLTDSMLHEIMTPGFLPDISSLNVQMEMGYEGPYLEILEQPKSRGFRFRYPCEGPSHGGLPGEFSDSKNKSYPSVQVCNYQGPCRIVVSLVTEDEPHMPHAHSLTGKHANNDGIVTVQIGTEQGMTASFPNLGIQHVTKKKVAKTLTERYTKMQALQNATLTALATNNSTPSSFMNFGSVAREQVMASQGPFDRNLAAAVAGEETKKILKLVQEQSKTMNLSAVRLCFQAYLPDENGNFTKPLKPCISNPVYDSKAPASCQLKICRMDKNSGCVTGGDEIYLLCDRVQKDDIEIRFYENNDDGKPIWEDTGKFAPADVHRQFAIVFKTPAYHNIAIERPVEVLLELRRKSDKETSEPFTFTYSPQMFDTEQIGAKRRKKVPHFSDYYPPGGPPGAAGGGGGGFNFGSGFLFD
# [1] = target: T2, GST-Nv-NF-kB (Cys allele) (UniProt E5G601)
# T2 sequence: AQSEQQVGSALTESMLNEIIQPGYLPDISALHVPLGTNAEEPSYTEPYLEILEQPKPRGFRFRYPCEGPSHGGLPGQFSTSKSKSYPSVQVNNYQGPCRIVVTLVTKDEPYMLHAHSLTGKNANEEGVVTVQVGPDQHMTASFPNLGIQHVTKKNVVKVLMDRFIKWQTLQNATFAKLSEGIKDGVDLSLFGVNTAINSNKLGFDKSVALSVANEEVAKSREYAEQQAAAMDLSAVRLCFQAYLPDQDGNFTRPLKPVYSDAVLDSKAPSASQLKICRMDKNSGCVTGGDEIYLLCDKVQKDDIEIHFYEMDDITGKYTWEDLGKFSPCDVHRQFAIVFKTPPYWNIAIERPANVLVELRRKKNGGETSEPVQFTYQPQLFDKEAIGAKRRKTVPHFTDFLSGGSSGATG
# GST-Co-NF-kB = target: T3, GST-Co-NF-kB (UniProt F1ARL5)
# T3 sequence: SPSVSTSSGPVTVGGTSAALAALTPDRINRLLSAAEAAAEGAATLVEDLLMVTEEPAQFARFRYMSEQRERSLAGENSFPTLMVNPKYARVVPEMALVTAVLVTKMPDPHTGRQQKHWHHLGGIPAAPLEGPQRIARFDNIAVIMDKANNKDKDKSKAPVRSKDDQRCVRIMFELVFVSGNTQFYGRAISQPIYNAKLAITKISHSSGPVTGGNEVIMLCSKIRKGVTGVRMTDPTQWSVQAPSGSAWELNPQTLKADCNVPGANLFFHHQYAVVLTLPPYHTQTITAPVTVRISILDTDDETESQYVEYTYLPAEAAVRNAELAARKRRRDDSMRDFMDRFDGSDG
# GST-Dm-Relish = target: T4, GST-Dm-Relish (UniProt Q94527)
# T4 sequence: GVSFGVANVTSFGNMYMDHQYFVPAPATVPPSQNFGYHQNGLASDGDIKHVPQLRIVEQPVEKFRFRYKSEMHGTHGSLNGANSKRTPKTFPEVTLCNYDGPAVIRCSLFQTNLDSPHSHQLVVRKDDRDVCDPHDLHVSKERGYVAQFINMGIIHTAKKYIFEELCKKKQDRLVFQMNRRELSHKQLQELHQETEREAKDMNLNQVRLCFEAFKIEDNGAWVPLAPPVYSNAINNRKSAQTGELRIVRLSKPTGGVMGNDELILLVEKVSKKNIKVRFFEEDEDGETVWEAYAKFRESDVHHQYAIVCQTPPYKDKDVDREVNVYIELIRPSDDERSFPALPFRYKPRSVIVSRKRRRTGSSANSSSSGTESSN
# GST-Aq-NF-kB = target: T5, GST-Aq-NF-kB (UniProt A9Y5G7)
# T5 sequence: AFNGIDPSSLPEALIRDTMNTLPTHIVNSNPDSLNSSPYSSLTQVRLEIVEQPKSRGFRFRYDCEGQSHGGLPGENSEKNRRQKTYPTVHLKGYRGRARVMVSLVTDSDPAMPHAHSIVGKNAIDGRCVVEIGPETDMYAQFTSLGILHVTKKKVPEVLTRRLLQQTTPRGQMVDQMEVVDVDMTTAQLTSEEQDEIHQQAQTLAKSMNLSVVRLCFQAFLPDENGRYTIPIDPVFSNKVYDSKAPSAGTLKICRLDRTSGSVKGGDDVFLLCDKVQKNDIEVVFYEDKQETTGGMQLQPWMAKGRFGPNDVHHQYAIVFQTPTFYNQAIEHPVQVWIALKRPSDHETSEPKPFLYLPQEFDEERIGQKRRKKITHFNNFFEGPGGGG
sequence,measurement,setting,value
CCGATTAACATCATAATCTATCATGATGTTAATCGGGTCTTGATTCGCTTGACGCTGCTG,binding signal,GST-Ap-NF-kB RHD,-1.05 z-score
same,binding signal,[1],-0.446 z-score
same,binding signal,GST-Co-NF-kB,-1.07 z-score
same,binding signal,GST-Dm-Relish,-0.691 z-score
same,binding signal,GST-Aq-NF-kB,-0.397 z-score
CCGATTAACATCAATGGCAAGGTTGATGTTAATCGGGTCTTGATTCGCTTGACGCTGCTG,binding signal,GST-Ap-NF-kB RHD,-0.424 z-score
same,binding signal,[1],-0.675 z-score
same,binding signal,GST-Co-NF-kB,-0.101 z-score
same,binding signal,GST-Dm-Relish,-0.269 z-score
same,binding signal,GST-Aq-NF-kB,-0.351 z-score
CCGATTAACATCACCGCAGGCATTGATGTTAATCGGGTCTTGATTCGCTTGACGCTGCTG,binding signal,GST-Ap-NF-kB RHD,-0.273 z-score
same,binding signal,[1],-0.247 z-score
same,binding signal,GST-Co-NF-kB,-0.616 z-score
same,binding signal,GST-Dm-Relish,0.224 z-score
same,binding signal,GST-Aq-NF-kB,-0.128 z-score
CCGATTAACATCATATGTCAGTCTGATGTTAATCGGGTCTTGATTCGCTTGACGCTGCTG,binding signal,GST-Ap-NF-kB RHD,-0.0216 z-score
same,binding signal,[1],-1.08 z-score
same,binding signal,GST-Co-NF-kB,-0.58 z-score
same,binding signal,GST-Dm-Relish,-0.996 z-score
same,binding signal,GST-Aq-NF-kB,-0.522 z-score
CCGATTAACATCACCGTTCCGATTGATGTTAATCGGGTCTTGATTCGCTTGACGCTGCTG,binding signal,GST-Ap-NF-kB RHD,-0.282 z-score
same,binding signal,[1],-0.0273 z-score
same,binding signal,GST-Co-NF-kB,-0.775 z-score
same,binding signal,GST-Dm-Relish,0.635 z-score
same,binding signal,GST-Aq-NF-kB,0.251 z-score
CCGATTAACATCAACCAAGCTTGTGATGTTAATCGGGTCTTGATTCGCTTGACGCTGCTG,binding signal,GST-Ap-NF-kB RHD,-0.699 z-score
same,binding signal,[1],-0.451 z-score
same,binding signal,GST-Co-NF-kB,-0.117 z-score
same,binding signal,GST-Dm-Relish,-0.603 z-score
same,binding signal,GST-Aq-NF-kB,-0.699 z-score
CCGATTAACATCATGACTCCTGTTGATGTTAATCGGGTCTTGATTCGCTTGACGCTGCTG,binding signal,GST-Ap-NF-kB RHD,-0.185 z-score
same,binding signal,[1],-0.259 z-score
same,binding signal,GST-Co-NF-kB,0.224 z-score
same,binding signal,GST-Dm-Relish,-0.371 z-score
same,binding signal,GST-Aq-NF-kB,-0.302 z-score
CCGATTAACATCATTCGGCGAGTTGATGTTAATCGGGTCTTGATTCGCTTGACGCTGCTG,binding signal,GST-Ap-NF-kB RHD,0.132 z-score
same,binding signal,[1],-0.377 z-score
same,binding signal,GST-Co-NF-kB,-0.147 z-score
same,binding signal,GST-Dm-Relish,-0.697 z-score
same,binding signal,GST-Aq-NF-kB,-0.533 z-score
CCGATTAACATCAGGGAATTCCCTGATGTTAATCGGGTCTTGATTCGCTTGACGCTGCTG,binding signal,GST-Ap-NF-kB RHD,12 z-score
same,binding signal,[1],12.7 z-score
same,binding signal,GST-Co-NF-kB,7.25 z-score
same,binding signal,GST-Dm-Relish,10 z-score
same,binding signal,GST-Aq-NF-kB,12.2 z-score
CCGATTAACATCAACACCGGCTTTGATGTTAATCGGGTCTTGATTCGCTTGACGCTGCTG,binding signal,GST-Ap-NF-kB RHD,0.277 z-score
same,binding signal,[1],-0.182 z-score
same,binding signal,GST-Co-NF-kB,-1.2 z-score
same,binding signal,GST-Dm-Relish,-1.27 z-score
same,binding signal,GST-Aq-NF-kB,-0.256 z-score
CCGATTAACATCATCTTACGATATGATGTTAATCGGGTCTTGATTCGCTTGACGCTGCTG,binding signal,GST-Ap-NF-kB RHD,-0.717 z-score
same,binding signal,[1],-0.334 z-score
same,binding signal,GST-Co-NF-kB,-0.518 z-score
same,binding signal,GST-Dm-Relish,-0.382 z-score
same,binding signal,GST-Aq-NF-kB,-0.323 z-score
CCGATTAACATCACCCCGAACGCTGATGTTAATCGGGTCTTGATTCGCTTGACGCTGCTG,binding signal,GST-Ap-NF-kB RHD,1.59 z-score
same,binding signal,[1],0.14 z-score
same,binding signal,GST-Co-NF-kB,2.02 z-score
same,binding signal,GST-Dm-Relish,0.832 z-score
same,binding signal,GST-Aq-NF-kB,0.901 z-score
CCGATTAACATCATACGAGCAGTTGATGTTAATCGGGTCTTGATTCGCTTGACGCTGCTG,binding signal,GST-Ap-NF-kB RHD,-0.191 z-score
same,binding signal,[1],-0.162 z-score
same,binding signal,GST-Co-NF-kB,0.16 z-score
same,binding signal,GST-Dm-Relish,-0.652 z-score
same,binding signal,GST-Aq-NF-kB,-0.468 z-score
